According to the CheMixHub viscosity set:
Further values from the same series stand in other lists.

Test: xn = mol fraction of the nth substance listed

C1COCCO1 + O
Conditions | viscosity [mPa·s]
306.15 K, 101 kPa, x1 = 0.1114 | 1.372
306.15 K, 101 kPa, x1 = 0.1433 | 1.482
306.15 K, 101 kPa, x1 = 0.1726 | 1.55
306.15 K, 101 kPa, x1 = 0.2065 | 1.588
306.15 K, 101 kPa, x1 = 0.2501 | 1.6
306.15 K, 101 kPa, x1 = 0.3029 | 1.596
306.15 K, 101 kPa, x1 = 0.356 | 1.558
306.15 K, 101 kPa, x1 = 0.4203 | 1.481
306.15 K, 101 kPa, x1 = 0.4996 | 1.389
306.15 K, 101 kPa, x1 = 0.5367 | 1.349
306.15 K, 101 kPa, x1 = 0.5999 | 1.286
306.15 K, 101 kPa, x1 = 0.6479 | 1.24
306.15 K, 101 kPa, x1 = 0.7309 | 1.172
306.15 K, 101 kPa, x1 = 0.7621 | 1.15
306.15 K, 101 kPa, x1 = 0.7953 | 1.128
306.15 K, 101 kPa, x1 = 0.8686 | 1.086
306.15 K, 101 kPa, x1 = 0.9092 | 1.066
306.15 K, 101 kPa, x1 = 0.976 | 1.038
306.15 K, 101 kPa, x2 = 0.0145 | 1.035
307.15 K, 101.32 kPa, x1 = 0.02221 | 0.8448
307.15 K, 101.32 kPa, x1 = 0.04863 | 0.9971
307.15 K, 101.32 kPa, x1 = 0.08057 | 1.157
307.15 K, 101.32 kPa, x1 = 0.12 | 1.31
307.15 K, 101.32 kPa, x1 = 0.1698 | 1.448
307.15 K, 101.32 kPa, x1 = 0.2347 | 1.548
307.15 K, 101.32 kPa, x1 = 0.2949 | 1.529
307.15 K, 101.32 kPa, x1 = 0.323 | 1.508
307.15 K, 101.32 kPa, x1 = 0.3802 | 1.449
307.15 K, 101.32 kPa, x1 = 0.4499 | 1.394
307.15 K, 101.32 kPa, x1 = 0.5367 | 1.304
307.15 K, 101.32 kPa, x1 = 0.6479 | 1.158
307.15 K, 101.32 kPa, x1 = 0.7953 | 1.043
307.15 K, 101.32 kPa, x1 = 0.8686 | 1.017
307.15 K, 101.32 kPa, x1 = 0.9529 | 0.9956
308.15 K, 101.33 kPa, x1 = 0.0999 | 1.273
308.15 K, 101.33 kPa, x1 = 0.1999 | 1.527
308.15 K, 101.33 kPa, x1 = 0.2998 | 1.537
308.15 K, 101.33 kPa, x1 = 0.3982 | 1.445
308.15 K, 101.33 kPa, x1 = 0.4981 | 1.328
308.15 K, 101.33 kPa, x1 = 0.5981 | 1.218
308.15 K, 101.33 kPa, x1 = 0.6997 | 1.131
308.15 K, 101.33 kPa, x1 = 0.7996 | 1.063
308.15 K, 101.33 kPa, x1 = 0.9 | 1.02
309.15 K, 101 kPa, x1 = 0.00206 | 0.7208
309.15 K, 101 kPa, x1 = 0.00628 | 0.7467
309.15 K, 101 kPa, x1 = 0.01516 | 0.7958
309.15 K, 101 kPa, x1 = 0.03482 | 0.8999
309.15 K, 101 kPa, x1 = 0.05303 | 1.002
309.15 K, 101 kPa, x1 = 0.07366 | 1.11
309.15 K, 101 kPa, x1 = 0.08413 | 1.164
309.15 K, 101 kPa, x1 = 0.1114 | 1.279
309.15 K, 101 kPa, x1 = 0.1433 | 1.377
309.15 K, 101 kPa, x1 = 0.1726 | 1.436
309.15 K, 101 kPa, x1 = 0.2065 | 1.481
309.15 K, 101 kPa, x1 = 0.2501 | 1.49
309.15 K, 101 kPa, x1 = 0.3029 | 1.489
309.15 K, 101 kPa, x1 = 0.356 | 1.458
309.15 K, 101 kPa, x1 = 0.4203 | 1.391
309.15 K, 101 kPa, x1 = 0.4996 | 1.312
309.15 K, 101 kPa, x1 = 0.5367 | 1.273
309.15 K, 101 kPa, x1 = 0.5999 | 1.212
309.15 K, 101 kPa, x1 = 0.6479 | 1.172
309.15 K, 101 kPa, x1 = 0.7309 | 1.114
309.15 K, 101 kPa, x1 = 0.7621 | 1.094
309.15 K, 101 kPa, x1 = 0.7953 | 1.074
309.15 K, 101 kPa, x1 = 0.8686 | 1.036
309.15 K, 101 kPa, x1 = 0.9092 | 1.017
309.15 K, 101 kPa, x1 = 0.976 | 0.9913
309.15 K, 101 kPa, x2 = 0.0145 | 0.988
310.15 K, 101.32 kPa, x1 = 0.02221 | 0.7849
310.15 K, 101.32 kPa, x1 = 0.04863 | 0.9238
310.15 K, 101.32 kPa, x1 = 0.08057 | 1.071
310.15 K, 101.32 kPa, x1 = 0.12 | 1.213
310.15 K, 101.32 kPa, x1 = 0.1698 | 1.334
310.15 K, 101.32 kPa, x1 = 0.2347 | 1.416
310.15 K, 101.32 kPa, x1 = 0.2949 | 1.399
310.15 K, 101.32 kPa, x1 = 0.323 | 1.381
310.15 K, 101.32 kPa, x1 = 0.3802 | 1.333
310.15 K, 101.32 kPa, x1 = 0.4499 | 1.272
310.15 K, 101.32 kPa, x1 = 0.5367 | 1.194
310.15 K, 101.32 kPa, x1 = 0.6479 | 1.082
310.15 K, 101.32 kPa, x1 = 0.7953 | 0.9696
310.15 K, 101.32 kPa, x1 = 0.8686 | 0.9523
310.15 K, 101.32 kPa, x1 = 0.9529 | 0.9309
311.15 K, 101 kPa, x1 = 0.00206 | 0.6977
311.15 K, 101 kPa, x1 = 0.00628 | 0.7177
311.15 K, 101 kPa, x1 = 0.01516 | 0.7578
311.15 K, 101 kPa, x1 = 0.03482 | 0.8596
311.15 K, 101 kPa, x1 = 0.05303 | 0.9564
311.15 K, 101 kPa, x1 = 0.07366 | 1.06
311.15 K, 101 kPa, x1 = 0.08413 | 1.107
311.15 K, 101 kPa, x1 = 0.1114 | 1.219
311.15 K, 101 kPa, x1 = 0.1433 | 1.31
311.15 K, 101 kPa, x1 = 0.1726 | 1.37
311.15 K, 101 kPa, x1 = 0.2065 | 1.409
311.15 K, 101 kPa, x1 = 0.2501 | 1.426
311.15 K, 101 kPa, x1 = 0.3029 | 1.416
311.15 K, 101 kPa, x1 = 0.356 | 1.388
311.15 K, 101 kPa, x1 = 0.4203 | 1.339
311.15 K, 101 kPa, x1 = 0.4996 | 1.254
311.15 K, 101 kPa, x1 = 0.5367 | 1.226
311.15 K, 101 kPa, x1 = 0.5999 | 1.168
311.15 K, 101 kPa, x1 = 0.6479 | 1.13
311.15 K, 101 kPa, x1 = 0.7309 | 1.078
311.15 K, 101 kPa, x1 = 0.7621 | 1.063
311.15 K, 101 kPa, x1 = 0.7953 | 1.042
